Numbering of substitutions follows the chain as printed. Names and notes keep the numbering of the source. These are yes or no findings as the source states them, for the method shown. For part of these data: In cells and extracts the contact can be indirect. Some entries that bind do so weakly or less than the wild type. For part of these data: Tags and fused reporters may be left off the sequences shown.
What was measured:
[1] = biological target: T1, NEK8, endogenous in AGS cells (human (endogenous in AGS)) (UniProt Q86SG6); assay: co-IP; AGS cell lysate (M-PER buffer); NEK8 or ASNS monoclonal antibody with Protein G beads, 4 °C, 4-5 h; homologous IgG as blank control; Western blot
T1 sequence: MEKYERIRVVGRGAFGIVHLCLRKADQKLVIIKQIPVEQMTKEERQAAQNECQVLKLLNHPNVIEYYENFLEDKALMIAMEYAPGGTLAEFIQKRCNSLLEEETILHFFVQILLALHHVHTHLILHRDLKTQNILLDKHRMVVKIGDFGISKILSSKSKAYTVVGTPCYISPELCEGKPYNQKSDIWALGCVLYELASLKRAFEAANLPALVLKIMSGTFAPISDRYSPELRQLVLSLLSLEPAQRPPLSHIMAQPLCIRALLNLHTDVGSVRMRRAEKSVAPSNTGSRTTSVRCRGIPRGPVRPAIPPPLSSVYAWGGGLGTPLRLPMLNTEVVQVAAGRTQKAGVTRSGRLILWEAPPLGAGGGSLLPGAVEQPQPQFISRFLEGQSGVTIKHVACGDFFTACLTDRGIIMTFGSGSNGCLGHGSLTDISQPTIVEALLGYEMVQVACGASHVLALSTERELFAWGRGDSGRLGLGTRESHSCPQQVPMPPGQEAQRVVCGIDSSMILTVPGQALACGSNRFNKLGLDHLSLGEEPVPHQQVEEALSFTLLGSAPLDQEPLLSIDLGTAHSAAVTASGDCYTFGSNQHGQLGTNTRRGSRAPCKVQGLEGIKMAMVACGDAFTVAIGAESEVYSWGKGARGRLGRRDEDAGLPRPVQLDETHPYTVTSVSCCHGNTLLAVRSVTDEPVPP

[2] = biological target: T2, asparagine synthetase (ASNS), endogenous (human (endogenous in HGC27 and AGS)) (UniProt P08243); assay: as above
T2 sequence: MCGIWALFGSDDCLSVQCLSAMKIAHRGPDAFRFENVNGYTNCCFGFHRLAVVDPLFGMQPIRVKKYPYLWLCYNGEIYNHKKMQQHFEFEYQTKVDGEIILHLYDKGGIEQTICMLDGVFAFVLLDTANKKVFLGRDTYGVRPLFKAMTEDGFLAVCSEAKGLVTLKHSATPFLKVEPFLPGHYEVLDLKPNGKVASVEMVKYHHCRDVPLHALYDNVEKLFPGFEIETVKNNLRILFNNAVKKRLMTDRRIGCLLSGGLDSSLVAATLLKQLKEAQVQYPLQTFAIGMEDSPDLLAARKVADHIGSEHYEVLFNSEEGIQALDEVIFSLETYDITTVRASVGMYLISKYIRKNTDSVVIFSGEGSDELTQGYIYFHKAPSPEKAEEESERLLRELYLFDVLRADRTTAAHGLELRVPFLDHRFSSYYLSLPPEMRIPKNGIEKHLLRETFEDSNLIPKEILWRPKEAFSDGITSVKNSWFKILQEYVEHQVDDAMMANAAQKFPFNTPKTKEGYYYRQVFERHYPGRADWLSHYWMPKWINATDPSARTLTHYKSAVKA

GST-NEK8 kinase domain = biological target: T3, GST-NEK8 kinase domain (UniProt Q86SG6); assay: pull-down; GST affinity isolation: GST-tagged NEK8 or ASNS proteins on glutathione-Sepharose 4B beads incubated with His-tagged ASNS or NEK8 at 4 °C for five hours; wash with GST binding buffer (2 mM EDTA, 50 mM NaF, 100 mM NaCl, 1% NP-40); immunoblotting; both purified
T3 sequence: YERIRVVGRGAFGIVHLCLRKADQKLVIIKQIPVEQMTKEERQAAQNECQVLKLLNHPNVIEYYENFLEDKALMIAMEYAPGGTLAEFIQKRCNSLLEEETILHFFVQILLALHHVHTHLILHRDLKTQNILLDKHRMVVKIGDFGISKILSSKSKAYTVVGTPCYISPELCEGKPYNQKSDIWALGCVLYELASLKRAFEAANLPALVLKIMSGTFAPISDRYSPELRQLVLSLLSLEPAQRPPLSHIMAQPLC

[3] = biological target: T4, GST-ASNS asparagine synthetase domain (UniProt P08243); assay: as above
T4 sequence: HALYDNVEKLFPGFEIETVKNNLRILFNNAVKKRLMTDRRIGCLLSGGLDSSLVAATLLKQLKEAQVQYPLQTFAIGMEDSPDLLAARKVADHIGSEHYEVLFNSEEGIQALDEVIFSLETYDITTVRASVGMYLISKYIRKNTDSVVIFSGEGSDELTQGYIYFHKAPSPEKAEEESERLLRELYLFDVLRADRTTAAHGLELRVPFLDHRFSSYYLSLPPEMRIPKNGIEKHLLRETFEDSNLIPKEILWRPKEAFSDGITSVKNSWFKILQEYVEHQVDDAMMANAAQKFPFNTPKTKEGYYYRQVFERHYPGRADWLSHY

[4] = biological target: T5, NEK8 (partner in the co-immunoprecipitation with ASNS-WT and ASNS-S349A) (UniProt Q86SG6); assay: co-IP; lysates of GC cells expressing WT-ASNS/Flag-ASNS or ASNS-S349A/Flag-ASNS-S349A; Western blot; cell line and precipitating antibody not given
T5 sequence: T1 sequence

B1: asparagine synthetase (ASNS), endogenous (enzyme, UniProt P08243 1-561)
chain: T2 sequence
[1]
  binding: binds

B2: NEK8, endogenous in AGS cells (enzyme, UniProt Q86SG6 1-692)
chain: T1 sequence
[2]
  binding: binds

B3: His-tagged ASNS (enzyme, UniProt P08243 1-561)
chain: T2 sequence
GST-NEK8 kinase domain
  binding: binds

B4: His-NEK8 (enzyme, UniProt Q86SG6 1-692)
chain: T1 sequence
[3]
  binding: binds

B5: Flag-ASNS (wild type) (enzyme, UniProt P08243 1-561)
chain: T2 sequence
[4]
  binding: binds

B6: Flag-ASNS-S349A (enzyme, UniProt P08243 1-561)
chain: T2 sequence with S349A
[4]
  binding: no binding

Reference: PMC11702068, “NEK8 promotes the progression of gastric cancer by reprogramming asparagine metabolism” (Molecular Medicine, 2025)
